The full ranking holds about 110,000 compounds; the median of “z-score” is about -0.1, and the highest 2% start at about 2. This is one part of the list. Active and inactive are the calls of the source.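 How the source made its calls: active means z-score in the third read window above 3 or below -3; inactive means the rest.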
Biological target: Metabotropic glutamate receptor 8 (Rattus norvegicus) (UniProt P70579)
Experiment: mGluR8 Gi/Go-coupled signaling modulation – cell-based, rat, thallium flux, HTS, primary screen (AID 488969)
Settings: HEK293 rat mGluR8, GIRK (G protein-gated inwardly rectifying potassium channel) thallium flux, FluoZin2; at 10 µM; stronger effect = higher value; submaximal glutamate (EC20) added with thallium

UniProt P70579, sequence (P70579 whole entry, looked up): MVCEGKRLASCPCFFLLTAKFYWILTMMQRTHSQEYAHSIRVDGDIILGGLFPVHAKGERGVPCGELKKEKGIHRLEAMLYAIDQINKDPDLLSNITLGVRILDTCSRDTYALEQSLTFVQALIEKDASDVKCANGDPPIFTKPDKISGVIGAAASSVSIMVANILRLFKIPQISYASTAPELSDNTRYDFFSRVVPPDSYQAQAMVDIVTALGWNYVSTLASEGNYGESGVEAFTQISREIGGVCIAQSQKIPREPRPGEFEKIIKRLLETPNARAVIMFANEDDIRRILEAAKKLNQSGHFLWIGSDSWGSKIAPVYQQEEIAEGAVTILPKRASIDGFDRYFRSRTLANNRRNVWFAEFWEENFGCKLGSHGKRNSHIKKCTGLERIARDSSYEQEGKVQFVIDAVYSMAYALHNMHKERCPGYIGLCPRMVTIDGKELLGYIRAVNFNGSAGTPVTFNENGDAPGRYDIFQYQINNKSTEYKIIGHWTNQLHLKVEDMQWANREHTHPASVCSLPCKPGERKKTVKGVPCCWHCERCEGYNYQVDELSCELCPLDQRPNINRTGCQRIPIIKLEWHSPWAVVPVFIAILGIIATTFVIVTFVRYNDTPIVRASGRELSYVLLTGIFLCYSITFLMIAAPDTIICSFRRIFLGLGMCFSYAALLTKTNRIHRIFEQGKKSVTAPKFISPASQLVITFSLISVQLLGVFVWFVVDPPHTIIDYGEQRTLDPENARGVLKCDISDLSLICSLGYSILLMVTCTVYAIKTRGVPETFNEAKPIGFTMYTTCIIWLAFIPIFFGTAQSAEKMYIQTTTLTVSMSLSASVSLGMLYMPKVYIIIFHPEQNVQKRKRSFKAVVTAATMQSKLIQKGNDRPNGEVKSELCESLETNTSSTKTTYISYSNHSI

First: Cc1cccc(NC(=O)CCN2C(=O)C3C4C=CC(C4)C3C2=O)c1 (stereo not drawn)
Second: CC(=O)c1cccc(NC(=O)CCOc2ccccc2)c1
The z-score of the first is lower: -0.0459 for the first, 0.782 for the second.

First: CCOC(=O)c1cnc2cc(Cl)c(OC)cc2c1NCC1CCCO1 (stereo not drawn)
Second: CCOC(=O)c1cnc(SC)nc1Oc1cccc(NS(=O)(=O)c2ccc(Cl)cc2)c1
The z-score of the first is lower: -0.264 for the first, 0.294 for the second.

First: Cc1ccc(OCC(=O)Nc2ccc(N(C)C)cc2)cc1
Second: Cc1cccc(OCC(=O)Nc2ccc(N3CCN(C(=O)c4ccccc4)CC3)cc2)c1
The z-score of the first is higher: 1.74 for the first, -0.0735 for the second.

First: Cc1c(NC(=O)C(C)OC(=O)C(NC(=O)c2ccco2)C(C)C)c(=O)n(-c2ccccc2)n1C (stereo not drawn)
Second: COc1cc(OC)cc(C(=O)NC(=S)Nc2ccc(NC(=O)c3ccco3)cc2)c1
The z-score of the first is higher: 0.193 for the first, -0.0757 for the second.

Going from `COC(=O)C1=C(C)N(Cc2ccc(C)cc2)C(=O)/C1=C\c1ccc(O)c(OC)c1` to `COc1cc(/C=C2\SC(c3ccc(C)cc3)=NC2=O)cc(OC)c1OC`, the z-score falls from -0.73 to -1.62.

Going from `CCOC(=O)c1c(NC(=O)CC2Nc3ccccc3NC2=O)sc(C)c1C` (stereo not drawn) to `CCOC(=O)c1cc(-c2ccccc2)sc1NC(=O)CN1C(=O)c2ccccc2C1=O`, the z-score falls from -0.035 to -0.0954.

First: CC1CCCC(NC(=O)CSc2nccn2C)C1C (stereo not drawn)
Second: Cc1ccc(C)c(NC(=O)CSc2nnc3n2CCCCC3)c1
The z-score of the first is higher: 0.409 for the first, 0.0204 for the second.

First: Cc1ccc(S(=O)(=O)NCCSc2nnnn2-c2cc(C)ccc2C)cc1
Second: Cc1ccc(N2CC(C(=O)NCCc3ccc(S(N)(=O)=O)cc3)CC2=O)cc1 (stereo not drawn)
The z-score of the first is higher: 0.419 for the first, 0.343 for the second.

First: CC(=O)c1cccc(NC(=O)c2ccncc2)c1
Second: COC(=O)c1ccccc1S(=O)(=O)NC(=O)c1ccccc1
The z-score of the first is lower: -0.165 for the first, 0.16 for the second.

First: COc1ccccc1NC(=O)C1=C(C)Nc2nc(CCCO)nn2C1c1ccc2c(c1)OCO2 (stereo not drawn)
Second: Cc1cccc(-c2nsc(SCC(=O)NCc3ccc4c(c3)OCO4)n2)c1
The z-score of the first is lower: -0.459 for the first, -0.0976 for the second.

Going from `FC(F)(F)c1cccc(Cn2nnnc2-c2cccc(C(F)(F)F)c2)c1` to `Cc1ccc(Cn2nnc3c(=O)n(CC(=O)OCc4ccccc4)cnc32)cc1`, the z-score rises from -0.494 to -0.426.

First: Cc1ccccc1C(=O)Nc1ccccc1-n1cccc1
Second: Cc1cccc(NC(=O)c2sccc2-n2cccc2)c1C
The z-score of the first is higher: -0.134 for the first, -0.81 for the second.

Compared with `CC(=O)Nc1ccccc1NC(=O)c1cccc2ccccc12`, `O=C(CSc1cccs1)Nc1cccc2ccccc12` is lower in z-score: 0.207 for the first, -0.442 for the second.

Compared with `CCCCn1c(O)c(N=NC(=O)c2ccncc2)c2cc(Br)ccc21`, `COC(=O)c1cc(-c2ccc(Br)cc2)on1` is lower in z-score: -0.148 for the first, -1.67 for the second.

First: COC(=O)c1sccc1NC(=O)c1ccc2c(c1)OCO2
Second: CCN(CC(=O)Nc1ccc2c(c1)OCCO2)S(=O)(=O)c1cccs1
The z-score of the first is lower: 0.134 for the first, 1.19 for the second.

First: CCC(C)n1c(SCC(=O)Nc2cc(C)on2)nc2ccccc2c1=O (stereo not drawn)
Second: COc1ccc(C(=O)Nn2c(SCC(=O)c3ccc(Cl)cc3)nc3ccccc3c2=O)cc1
The z-score of the first is higher: 0.0932 for the first, -0.0199 for the second.

Compared with `NC(=O)C1(N2CCCCC2)CCN(C(=O)NC23CC4CC(CC(C4)C2)C3)CC1`, `O=C(O)CSC(=S)N1CCCCC1` is higher in z-score: -0.0737 for the first, 0.621 for the second.

Compared with `Cc1ccc(Cn2ccc(NC(=O)c3cc(-c4ccc(F)cc4)on3)n2)cc1`, `COc1ccc(C(OC(=O)c2ccco2)C(=O)NCc2ccc(C)cc2)cc1` (stereo not drawn) is higher in z-score: -0.132 for the first, 1.17 for the second.

Compared with `Cc1ccccc1NC(=S)N(CCCN1CCOCC1)Cc1cccs1`, `Cc1cccc(NC(=S)NCC(c2cccnc2)N2CCOCC2)c1` (stereo not drawn) is higher in z-score: -0.491 for the first, -0.204 for the second.

First: Cc1ccc(/C=C/C(=O)Nc2nc3ccccc3[nH]2)cc1
Second: CC(C)(C)c1ccc(C(=O)Nc2nonc2-c2nc3ccccc3[nH]2)cc1
The z-score of the first is lower: -0.25 for the first, 0.212 for the second.

Compared with `COc1cc(/C=C(/C#N)c2nc3ccccc3[nH]2)ccc1OC(=O)c1ccco1`, `COc1ccc(C(=O)N/N=C/c2cccc3cccnc23)cc1` is lower in z-score: -0.292 for the first, -0.417 for the second.

Going from `CCc1cc2c(=O)[nH]c(Cc3ccc(OC)cc3)nc2s1` to `COc1ccc(-c2n[nH]c(=S)n2CC(C)C)cc1`, the z-score falls from 0.542 to -0.429.

Going from `Cc1ccc(CNCC2CCCO2)s1` (stereo not drawn) to `COc1ccc(CN(C(=O)CN2C(=O)c3ccccc3S2(=O)=O)C(C(=O)NCC2CCCO2)c2ccncc2)cc1` (stereo not drawn), the z-score falls from 0.217 to -0.514.

First: O=c1oc2ccccc2c(NCc2ccccc2F)c1[N+](=O)[O-]
Second: CC1c2[nH]c3ccccc3c2CCN1C(=O)Nc1ccccc1 (stereo not drawn)
The z-score of the first is higher: -0.272 for the first, -0.403 for the second.

Going from `Cc1cc(=O)[nH]c(N/N=C/c2sccc2C)n1` to `COc1ccc(Nc2cc(C)nc3nc(C)nn23)cc1Cl`, the z-score falls from -0.132 to -0.312.

Going from `Cc1cc(OC(C)C)nc(-c2ccccc2O)n1` to `Cc1cc(C)n(-c2cccc3cccnc23)n1`, the z-score falls from -0.023 to -0.125.

First: O=C(O)C1CC(=O)N(Cc2cccs2)C1 (stereo not drawn)
Second: CCc1ccc(N2CC(C(=O)NCc3ccco3)CC2=O)cc1 (stereo not drawn)
The z-score of the first is higher: 0.254 for the first, -0.1 for the second.

Compared with `Cc1ccc(C(=O)COC(=O)c2ccc3c(c2)C(=O)N(c2cccc4ncccc24)C3=O)cc1C`, `COC(=O)c1ccc(OC(=O)C2CC(=O)N(c3cccc(C)c3)C2)cc1` (stereo not drawn) is lower in z-score: 0.234 for the first, -2.93 for the second.

Compared with `N#CC1=C(N)N(c2ccc(Oc3ccccc3)cc2)C(=O)C1`, `N#CC1=C2SCN(Cc3ccccc3)CN2C(=O)CC1c1cccs1` (stereo not drawn) is lower in z-score: 0.892 for the first, 0.161 for the second.

Compared with `CCCOc1ccc(-c2nnn(CC(=O)N3CCC(C)CC3)n2)cc1`, `O=C(CCCOc1ccc(Cl)cc1)N1CCOCC1` is higher in z-score: 0.081 for the first, 0.299 for the second.

Compared with `CC1CCN(c2nc3ccc(C(=O)N4CCN(Cc5ccccc5)CC4)cc3s2)CC1`, `O=C(c1cc2ccccc2oc1=O)N1CCN(c2ncccn2)CC1` is higher in z-score: -0.00212 for the first, 0.00205 for the second.

Going from `COc1ccc2c(c1)C1=NN(/C(C)=C\C(C)=O)C(c3ccccc3)C1CC2` (stereo not drawn) to `COc1ccc(-c2noc(CN3CCN(c4ccccc4)CC3)n2)cc1`, the z-score falls from 0.197 to -0.17.

First: CCN(CC)S(=O)(=O)c1ccc(S(=O)(=O)N2CCN(C(=O)c3ccco3)CC2)cc1
Second: CCOc1ccc(CN(C(=O)c2ccco2)C2CCS(=O)(=O)C2)cc1 (stereo not drawn)
The z-score of the first is lower: 0.0412 for the first, 0.457 for the second.

Compared with `Cc1cc2cc(CNS(=O)(=O)c3ccccc3)ccc2n1C`, `O=C(COc1ccc(/C=N/NS(=O)(=O)c2ccccc2)cc1)NCCc1ccccc1` is lower in z-score: -0.239 for the first, -0.376 for the second.

First: CCC12CN3CCN(CC(C3)/C1=N\NC(=O)c1ccc(C(C)(C)C)cc1)C2
Second: CCCC(=O)Nc1ccc(C(=O)N/N=C2\CC(=O)CC(C)(C)C2)cc1
The z-score of the first is higher: 0.0105 for the first, -0.113 for the second.

Going from `Brc1cc(Br)c2ncnc(N3CCCCC3)c2c1` to `O=c1c(Br)c(N2CCCC2)cnn1-c1ccccc1`, the z-score falls from 0.0126 to -0.0475.

First: CCOc1ccc(N(CC(=O)NN=C2CCN(C)CC2)S(C)(=O)=O)cc1
Second: CCCOc1ccc(C(=O)c2nc3c(n2O)CCCC3)cc1
The z-score of the first is lower: -0.0704 for the first, 0.0627 for the second.

Going from `COc1ccccc1C(=O)CSc1n[nH]c(N)n1` to `Cc1ccc(-n2c(C)n[nH]c2=S)cc1`, the z-score falls from 0.413 to 0.115.

Going from `C=CCNC(=O)C1=NOC(CNC(=O)c2c(-c3ccccc3Cl)noc2C)C1` (stereo not drawn) to `COC(=O)c1ccc(C)c(NC(=O)CCSc2ccccc2)c1`, the z-score falls from 0.0601 to -0.0823.

Going from `COc1ccc(NC(=O)CCNS(=O)(=O)c2ccc3c(c2)CCC(=O)N3)cc1` to `O=C(CSc1ccc2c(c1)OCCO2)Nc1cccc(S(=O)(=O)N2CCCCC2)c1`, the z-score falls from -0.358 to -0.41.

First: CC(C)(C)c1cc(CCC(=O)N2CCNCC2)c(C(C)(C)C)cc1O
Second: CCC(=O)Nc1ccc2nc(SCC(=O)N3CCCC3)sc2c1
The z-score of the first is higher: 0.647 for the first, -0.21 for the second.

Going from `O=C(NCc1ccccc1)c1ccc(CN(c2ccccn2)S(=O)(=O)c2ccccc2)cc1` to `Cc1nn(-c2ccccc2)c(Cl)c1CN(C(=O)CCl)c1ccc(Cl)cc1`, the z-score falls from -0.805 to -0.928.

Compared with `COc1ccc(-c2c3c(nc4sc5c(Cl)nc(C)nc5c24)CCC3)cc1`, `COc1ccc(-c2cc(C(F)(F)F)n3nc(C(=O)N4CCOCC4)nc3n2)cc1` is higher in z-score: -0.2 for the first, 0.098 for the second.

Compared with `CCc1nnc(NC(=O)C2CCCN(S(=O)(=O)c3ccccc3)C2)s1` (stereo not drawn), `O=C(Nc1ccccc1)C1CCCCC1` is higher in z-score: -0.526 for the first, -0.0328 for the second.

First: O=C1C=C(NCc2ccco2)CC(c2ccc(Cl)cc2)C1 (stereo not drawn)
Second: CCCc1cc(-c2nc(-c3ccc(Cl)cc3)cs2)ccn1
The z-score of the first is higher: 0.0824 for the first, -0.136 for the second.

Going from `O=S(=O)(NCCOC12CC3CC(CC(C3)C1)C2)c1cccc2nsnc12` to `CCCCCCNS(=O)(=O)c1ccc(Cl)s1`, the z-score falls from 0.716 to -0.0263.

Compared with `CCOC(=O)C1=C(C)N(C)C(=O)NC1c1cccc(O)c1` (stereo not drawn), `Cc1cccc(C2N(c3ccc(F)cc3)C(=O)C3CCCN32)c1` (stereo not drawn) is higher in z-score: -0.0984 for the first, 0.485 for the second.

Compared with `Cc1ccc(C2=NN3C(C2)c2ccccc2OC32C(=O)Nc3ccccc32)cc1` (stereo not drawn), `Cc1[nH]c2ccccc2c1C(c1ccccn1)N1CCC(C(N)=O)CC1` (stereo not drawn) is lower in z-score: -0.148 for the first, -0.157 for the second.

First: COc1cc2[nH]c3c(Cl)ncnc3c2cc1OC
Second: COc1ccc(C(=O)N(CC(=O)NC(C)(C)C)c2ccc3c(c2)OCCO3)cc1OC
The z-score of the first is higher: 1.11 for the first, -0.943 for the second.

Compared with `COCCOc1nc2c(c(=O)n(C)c(=O)n2C)n1CCc1ccccc1`, `COC(=O)c1cc(=O)nc2sc3cc(OC)ccc3n12` is higher in z-score: -0.683 for the first, 0.0761 for the second.

Going from `CCN(CC)c1ccc(C2NCC(c3ccc([N+](=O)[O-])cc3)O2)cc1` (stereo not drawn) to `Cn1nc([N+](=O)[O-])nc1Sc1ccc(Cl)cc1`, the z-score rises from -0.335 to -0.174.

First: Cc1nc2nc(SCC(N)=O)[nH]c2cc1Br
Second: Cc1cc(CC(=O)O)c(C)cc1CC(=O)O
The z-score of the first is higher: 0.124 for the first, -1.04 for the second.

Going from `O=C1CCC2c3ccc4ccccc4c3CCN12` (stereo not drawn) to `CCOc1ccccc1N1C(=O)CC(Nc2ccc(N3CCOCC3)cc2)C1=O` (stereo not drawn), the z-score falls from 0.219 to -0.121.

Going from `O=C(Nc1cccc(Cl)c1)NC1(C(=O)NCc2cccs2)CCCCC1` to `CCOc1ccc(C(=O)NCC(c2cccs2)N(C)C)cc1OCC` (stereo not drawn), the z-score falls from 0.225 to -0.293.

Compared with `Nc1nc(CN2CCOCC2)cs1`, `CCC(CC)C(=O)OCC(=O)Nc1ccc(S(=O)(=O)N2CCOCC2)cc1OC` is higher in z-score: -0.301 for the first, -0.163 for the second.

With `Cn1nc(-c2ccccc2)c(-c2nc(-c3cccc(Cl)c3)no2)c1Cl` the z-score was -0.289.

With `CN(C)CCNc1nc2c(c(=O)[nH]c(=O)n2C)n1CCCc1ccccc1` the z-score was active: 3.35.
In the case of `Brc1ccc(-c2nnc3c4ccccc4nc(N4CCOCC4)n23)cc1`, the z-score is reported as active: 4.42.

— PubChem BioAssay AID488969 (Vanderbilt High Throughput Screening Facility, 2010)
